# Measured values from PubChem BioAssay AID588453 (National Center for Advancing Translational Sciences (NCATS), 2011).
# The campaign covered roughly 390,000 compounds. About 4,000 (1%) were called active. The inconclusive results got no clear call from the source; some entries with a clear call stand among them for comparison. Calls come from the whole dose curve; as a rule, active = well fitted inhibition curve with a large enough effect; inconclusive = small, poorly fitted or top-dose-only effect; inactive = no such curve, though single readings can be large or run the other way. A potency beside an inconclusive call is a rough fit, not a confirmed value.
# Target: Thioredoxin reductase 1, cytoplasmic (Rattus norvegicus) (UniProt O89049)
# Chain of UniProt O89049 (O89049 whole entry, looked up): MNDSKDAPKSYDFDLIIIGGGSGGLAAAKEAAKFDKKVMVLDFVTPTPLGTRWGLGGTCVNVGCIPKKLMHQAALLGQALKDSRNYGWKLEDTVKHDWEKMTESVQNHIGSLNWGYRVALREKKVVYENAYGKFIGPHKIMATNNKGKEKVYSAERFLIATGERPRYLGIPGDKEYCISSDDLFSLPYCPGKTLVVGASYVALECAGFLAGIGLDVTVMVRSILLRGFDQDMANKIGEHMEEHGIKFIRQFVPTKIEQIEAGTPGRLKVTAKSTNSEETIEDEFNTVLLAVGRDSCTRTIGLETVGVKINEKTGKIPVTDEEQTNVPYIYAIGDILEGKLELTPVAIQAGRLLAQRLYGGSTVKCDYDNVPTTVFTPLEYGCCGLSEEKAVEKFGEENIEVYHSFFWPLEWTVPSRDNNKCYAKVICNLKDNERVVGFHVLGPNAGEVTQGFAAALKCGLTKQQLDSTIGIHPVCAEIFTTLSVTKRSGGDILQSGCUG
# Experiment: qHTS Assay for Inhibitors of Mammalian Selenoprotein Thioredoxin Reductase 1 (TrxR1): qHTS; note: nearly all actives have a fitted effect of over 65% in size
# Conditions: recombinant rTrxR1, NADPH fluorescence consumption, selenite substrate; series mostly up to 114 µM; activity change, negative = inhibition: at the top concentration
# In short: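 Rat TrxR1 (90 nM in the dispensed reagent) was pre-reduced with 400 uM NADPH for 5 min at room temperature, then incubated with compound for 15 min. After 400 uM selenite was added, NADPH fluorescence (Ex 340/Em 450 nm) was followed for 8 min.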
# % is set by controls: 0 for no effect and ±100 for the full control effect; potency is the fitted concentration of half-maximal effect; tags give direction and shape of the fitted curve.
SMILES,Potency,"activity change, negative = inhibition"
CC(C)CN(Cc1c(O)ccc2c3c(c(=O)oc12)CCC3)CC(C)C,"inconclusive: 63.1 µM [inhibitor, single point]",–
O=C1CCCC2=C1C(c1ccc(O)c(O)c1)Nc1ccc3ccccc3c12 (centres undefined),"inconclusive: 14.1 µM [inhibitor, full curve, poor fit]",–
Cc1nn(C)c(C(=O)Sc2ccccc2)c1[N+](=O)[O-],"inconclusive: 14.1 µM [inhibitor, partial curve]",–
Cc1ccc(CN(C(=O)c2ccccc2[N+](=O)[O-])C2CCS(=O)(=O)C2)o1 (centres undefined),"inconclusive: 89.1 µM [inhibitor, single point]",–
O=C(NC(=S)NNS(=O)(=O)c1ccccc1)c1ccccc1[N+](=O)[O-],"inconclusive: 2.51 µM [inhibitor, partial curve]",–
Cc1ccccc1N1CCN(C2CCCN(C(=O)c3ccsc3)C2)CC1 (centres undefined),"inconclusive: 70.8 µM [inhibitor, partial curve]",–
CCCCCCn1c(C)nc2c(c1=O)c1nc3ccccc3nc1n2/N=C/c1ccco1,"inconclusive: 79.4 µM [inhibitor, single point]",–
NC(=O)N/N=C/c1ccc([N+](=O)[O-])o1,active: 7.08 µM,–
CCN(CC)C(=O)C1CCCN(C/C(C)=C/c2ccccc2)C1 (centres undefined),–,inactive: 26.3%
Cc1ccc(C)c2[nH]c(=O)c(C(c3nnnn3C(C)(C)C)N3CC=C(c4ccc(F)cc4)CC3)cc12 (centres undefined),active: 70.8 µM,–
C=C1c2c(Cl)ccc(O)c2C(O)=C2C(=O)[C@]3(O)C(O)=C(C(N)=O)C(=O)[C@@H](N(C)C)[C@@H]3[C@@H](O)C12 (some centres undefined),"inconclusive: 56.2 µM [inhibitor, partial curve, poor fit]",–
CC(=O)Cc1nsc(NC(=O)c2ccc(-c3ccccc3Cl)o2)n1,"inconclusive: 79.4 µM [inhibitor, partial curve]",–
O=C(NC1CCC(O)CC1)c1ccc(Br)o1 (centres undefined),–,inactive: 3.86% [at 57.1 µM]
NC(=S)N/N=C/c1ccc(Br)o1,"inconclusive: 14.1 µM [inhibitor, full curve]",–
O=C(CC1C(=O)N(c2ccc(F)cc2)C(=O)N1Cc1cccnc1)Nc1ccc(F)cc1 (centres undefined),–,inactive: 4.57%
COC(=O)c1ccc(CSc2nc3scc(-c4cccs4)c3c(=O)[nH]2)o1,"inconclusive: 39.8 µM [inhibitor, partial curve, poor fit]",–
CN(C)CCN(Cc1ccco1)S(=O)(=O)c1csc(C(N)=O)c1,"inconclusive: 79.4 µM [inhibitor, single point]",–
CC12CCC(C(=O)Nc3cccnc3)(CC1=O)C2(C)C (centres undefined),"inconclusive: 3.55 µM [inhibitor, single point]",–
O=C1NC(=S)S/C1=C\c1cc(Cl)cc(Cl)c1O,"inconclusive: 56.2 µM [inhibitor, partial curve, poor fit]",–
Cc1nc(C)c(-c2ccc(SCC(=O)Nc3ccccc3F)nn2)s1,–,inactive: 18.9% [at 57.1 µM]
CCOc1ccc(NC(=O)CNC(=O)Cc2ccccc2)cc1,–,inactive: 9.02%
O=C(CSC1=Nc2ccccc2C2CC=NN12)NCc1ccco1 (centres undefined),"inconclusive: 79.4 µM [inhibitor, partial curve]",–
Cn1c(N=Cc2ccc([N+](=O)[O-])cc2)c(N)c(=O)n(C)c1=O,–,inactive: 42.2% [at 57.1 µM]

SMILES,Potency,"activity change, negative = inhibition"
Cc1cc(=O)[nH]c(SCC(=O)NNC(=O)Cc2ccccc2)n1,–,inactive: -0.063% [at 57.1 µM]
CCS(=O)(=O)C1=NN2C(=N)/C(=C\c3ccc(OC(=O)c4ccco4)c(OC)c3)C(=O)N=C2S1,"inconclusive: 44.7 µM [inhibitor, partial curve]",–
Cn1c(=O)n(-c2ccc(Cl)cc2)c(=O)c2c3c(sc21)COC(C)(C)C3,"inconclusive: 89.1 µM [inhibitor, single point]",–
CCOC(=O)c1[nH]c(=O)[nH]c1COC(=O)c1cc2ccccc2o1,active: 3.16 µM,–
O=C(Nc1ccc(/C=C/c2nc3ccccc3o2)cc1)c1ccc(F)cc1,–,inactive: 24.1%
CCOC(=O)/C=C(/C)N1N=C(c2ccc(OC)cc2)CC1c1cccc([N+](=O)[O-])c1 (centres undefined),active: 50.1 µM,–
Cc1ccc(OCC(=O)N/N=C/c2ccc([N+](=O)[O-])o2)cc1,"inconclusive: 22.4 µM [inhibitor, partial curve, poor fit]",–
CC(Sc1oc(-c2ccco2)nc1S(=O)(=O)c1ccc(Br)cc1)c1ccccc1 (centres undefined),"inconclusive: 28.2 µM [inhibitor, partial curve, poor fit]",–
CNc1ccccc1C(=O)OCC(=O)N(CCOC)c1c(N)n(CC(C)C)c(=O)[nH]c1=O,"inconclusive: 25.1 µM [inhibitor, single point]",–
O=C(COC(=O)c1ccc(NS(=O)(=O)c2cccs2)cc1)NCc1ccco1,"inconclusive: 89.1 µM [inhibitor, single point]",–
COCCCNC(=O)c1ccccc1NS(C)(=O)=O,–,inactive: 12.1% [at 57.1 µM]
CC1(C)C(O)=C(c2nc3ccccc3[nH]2)C(=N)N1c1ccccc1,"inconclusive: 39.8 µM [inhibitor, partial curve, poor fit]",–
O=C(O)c1ccc(NC2CC(=O)N(Cc3ccccc3)C2=O)cc1 (centres undefined),"inconclusive: 100 µM [inhibitor, single point]",–
CCOC(=O)/C(=C\c1ccccc1)C(=O)CCN1CCOCC1,"inconclusive: 0.282 µM [inhibitor, full curve, poor fit]",–
CC(C)C(=O)Nc1ccc(N2CCCC2)cc1,–,inactive: -8.16%
CC(C)(C)NC(=O)/C(=C\c1ccco1)NC(=O)c1ccco1,"inconclusive: 89.1 µM [inhibitor, single point]",–
CCOC(=O)c1cn(CC(=O)Nc2cccc(Cl)c2C)nn1,inactive,–
Cc1ccc(NC(=O)CN(C)C(=O)c2cc(-c3ccco3)nc3ccccc23)cc1,"inconclusive: 12.6 µM [inhibitor, partial curve, poor fit]",–
Cc1noc(/C=C/c2cccnc2)c1[N+](=O)[O-],"inconclusive: 56.2 µM [inhibitor, partial curve, poor fit]",–
O=C(COC(=O)/C=C/c1ccco1)Nc1ncc(Cl)cc1Cl,active: 50.1 µM,–
CC(NC(=O)Nc1ccccc1Cl)c1ccc2c(c1)OCO2 (centres undefined),"inconclusive: 28.2 µM [inhibitor, partial curve, poor fit]",–
COCC(C)n1c(C)cc(C(=O)COC(=O)c2cnc(Cl)c(Cl)c2)c1C (centres undefined),"inconclusive: 39.8 µM [inhibitor, single point]",–
COc1ccc(C(=O)NC(Cc2ccccc2)c2ccc3c(c2)OCCCO3)cc1 (centres undefined),–,inactive: 11.9%

SMILES,Potency,"activity change, negative = inhibition"
COc1ccc(C2=NOC3(CC(=O)N(c4ccc(F)cc4)C3=O)C2)c(OC)c1 (centres undefined),"inconclusive: 39.8 µM [inhibitor, partial curve]",–
CCc1ccccc1N(CC)C(=O)c1cc2c(s1)-c1ccccc1OC2,–,inactive: 51.8%
Cc1ccccc1C(=O)N/N=C/c1ccc([N+](=O)[O-])s1,"inconclusive: 44.7 µM [inhibitor, partial curve, poor fit]",–
C/C(CC(=O)NC1CCCC1)=N\NC(=O)C1CCCCC1,–,inactive: -2.99% [at 57.1 µM]
Cc1ccc(C2(C)NC(=O)N(CC(=O)Nc3ccc(S(=O)(=O)Nc4nccs4)cc3)C2=O)cc1 (centres undefined),–,inactive: 6.22%
COc1ccc(Br)cc1/C=C/C(=O)NC(=S)Nc1ccc(Cl)c(C(=O)O)c1,"inconclusive: 50.1 µM [inhibitor, partial curve]",–
O=C1OC(c2ccccc2)(c2cc(Br)c(O)c(Br)c2)c2ccccc21 (centres undefined),–,inactive: 12.9%
O=C(Nc1cccc2cccc(NC(=O)c3ccco3)c12)c1ccco1,"inconclusive: 25.1 µM [inhibitor, partial curve, poor fit]",–
O=C1NC[C@@H](Cc2cccc3ccccc23)N(CC2CCCCC2)C1=O,–,inactive: 14.7% [at 57.1 µM]
Cn1cc([C@@H]2C[C@H]3CN(Cc4cccc(Cl)c4)C(=O)[C@]34CCCN24)c2ccccc21,"inconclusive: 79.4 µM [inhibitor, partial curve, poor fit]",–
COc1ccc(OCC(=O)Nc2cccc(S(=O)(=O)N(C)c3ccccc3)c2)c([N+](=O)[O-])c1,–,inactive: 8.37%
Nc1c(C(=O)NC2CC2)sc2nc3c(c(-c4ccco4)c12)CC/C3=C/c1ccco1,"inconclusive: 15.8 µM [inhibitor, partial curve, poor fit]",–
CCc1cc(=O)oc2c(CN3CCN(C)CC3)c(O)c(Cl)cc12,"inconclusive: 28.2 µM [inhibitor, full curve, poor fit]",–
CC(=O)N1c2ccc(S(=O)(=O)N3CCC(C(=O)NCc4ccc(Cl)cc4)CC3)cc2CC1C (centres undefined),–,inactive: 2.77%
COc1cccc(CNC(=O)CCc2c(C)c3cc4c(C)c(C)oc4cc3oc2=O)c1,–,inactive: -4.63%
Cc1ccc(NC(=O)CCl)cc1S(=O)(=O)N1CCCCCC1,"inconclusive: 15.8 µM [inhibitor, partial curve]",–
C[C@H](NC(=O)c1ccc(Cl)cc1)C(=O)OCn1nnc2ccccc2c1=O,–,inactive: 1.15%
COC(=O)Cc1csc(NC(=O)CSc2nnc3ccccn23)n1,–,inactive: 10.4%
O=C(O)CC/C(=N\Nc1ccc([N+](=O)[O-])cc1S(=O)(=O)N1CCOCC1)c1cccs1,"inconclusive: 39.8 µM [inhibitor, partial curve, poor fit]",–
O=C(Nc1ccccc1)c1ccc(-c2ccccc2C(F)(F)F)o1,"inconclusive: 56.2 µM [inhibitor, partial curve]",–
O=C(CSc1nnc(-c2cccnc2)s1)Nc1cccc(C(=O)O)c1,–,inactive: 0.954%
Cc1ccc(C)c2c(C)ccnc12,–,inactive: 63.9%
CCOC(=O)C1=C(C)NC(SCC(=O)O)=C(C#N)C1c1ccco1 (centres undefined),"inconclusive: 7.08 µM [inhibitor, full curve]",–
